We go through 27 compounds from PubChem BioAssay AID1159614 (National Center for Advancing Translational Sciences (NCATS), 2016).

Each structure is given as a SMILES string. Among all 45,000 compounds or so, about 65 (0.1%) were called active. Calls follow the shape of the dose curve; as a rule, active = well fitted activation curve with a large enough effect; inconclusive = small, poorly fitted or top-dose-only effect; inactive = no such curve, though single readings can be large or run the other way. The list shows a part of the results.

The assay addresses Galactocerebrosidase (Homo sapiens) (UniProt P54803). As to the kind of experiment: A Novel Cell-Based Assay to Identify Small Molecules for B -Galactocerebrosidase. Also: 0% is about no effect; nearly all actives have a fitted effect of over 65% in size. Conditions: 145M-Twi-hGALC-G270D cells (Twitcher mouse brain line with human GALC G270D), HMU-beta-Gal fluorescence, 48 h; series mostly up to 57.5 µM; activation: at the top concentration. The procedure, abridged: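 Live 145M-Twi cells (Twitcher mouse brain-derived, GALC-null) stably expressing human GALC-G270D, with a wild-type GALC line, were compound-treated. Residual GALC activity was then read as fluorescence from 0.1 mM final HMU-β-gal at pH 5.2; higher signal means activation.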
Sequence of UniProt P54803 (P54803 whole entry, looked up): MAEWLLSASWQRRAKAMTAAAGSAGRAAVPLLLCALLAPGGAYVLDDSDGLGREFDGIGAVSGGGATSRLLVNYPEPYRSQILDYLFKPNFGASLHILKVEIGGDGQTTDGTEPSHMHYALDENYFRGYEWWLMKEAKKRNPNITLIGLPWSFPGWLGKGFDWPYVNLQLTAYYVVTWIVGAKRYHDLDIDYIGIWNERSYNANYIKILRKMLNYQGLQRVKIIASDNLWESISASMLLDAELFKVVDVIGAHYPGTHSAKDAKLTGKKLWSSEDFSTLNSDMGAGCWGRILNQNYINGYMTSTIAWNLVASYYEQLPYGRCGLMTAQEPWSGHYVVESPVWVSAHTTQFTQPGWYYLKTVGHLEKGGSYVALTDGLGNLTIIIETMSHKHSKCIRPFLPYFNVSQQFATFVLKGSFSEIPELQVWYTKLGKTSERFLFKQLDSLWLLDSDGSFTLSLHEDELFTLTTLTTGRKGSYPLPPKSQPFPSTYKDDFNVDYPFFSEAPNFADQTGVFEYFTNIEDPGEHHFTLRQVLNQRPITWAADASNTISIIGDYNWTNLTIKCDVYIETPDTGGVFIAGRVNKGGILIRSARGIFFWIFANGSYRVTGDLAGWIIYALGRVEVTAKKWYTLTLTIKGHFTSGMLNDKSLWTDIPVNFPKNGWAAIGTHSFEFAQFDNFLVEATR
In the case of `CCn1c(C(=O)N2CCC(C(=O)N3CCN(c4cccc(C)c4C)CC3)CC2)cc2sccc21`, the “activation” value was inactive: -5.3%.
Then `O=C(C1CCCN(S(=O)(=O)c2cccs2)C1)N1CCN(c2cccc(Cl)c2)CC1` (configuration not stated), with inactive: -13.8%; and `Cc1ccc(C)c(N2CCN(c3ncnc4c3nc3n4CCCCC3)CC2)c1`, with inactive: -5.2%.
On to `O=c1c2cc3c(cc2nc2sc(Nc4ccc(F)cc4F)nn12)OCO3`, for which the “activation” value is inactive: 0.801%.
For the compound `Cc1ccc(NC(=O)Cn2nnnc2-c2ccccc2N)cc1`, the “activation” value is inactive: -14.5%.
On to `Cn1nc(C(=O)N2CCN(c3ccc(Cl)cc3)CC2)c2c1-c1ccccc1SC2`, for which the “activation” value is inactive: -8.87%.
The result for `CCOc1ccc(C(=O)NCC(c2ccco2)S(=O)(=O)c2ccc(C)cc2)cc1` (configuration not stated) reads inactive: -0.185%; that for `COc1ccc(Cl)cc1NC(=O)N1CCC(CN2CCc3ccccc3C2)CC1`, inactive: -2.64%; that for `COc1cccc(CNC(=O)CSc2ccc(-c3sc(-c4ccccc4)nc3C)nn2)c1`, inactive: -7.62%.
Then `c1ccc(CNc2nc3ccccc3c3nc(-c4ccccc4)nn23)cc1`, with inactive: -27%.
On to `Cn1c(=O)c2nc(SCC(=O)Nc3cc(Cl)ccc3Cl)n(C)c2n(C)c1=O`, for which the “activation” value was inactive: -16.4%.
Take `NC(=O)CSc1nc2c(oc3ccccc32)c(=O)n1-c1ccccc1F`: the “activation” value is inactive: -13.4%.
The result for `Cc1ccc2c(=O)cc(C(=O)Nc3sc4c(c3C(=O)NCc3ccco3)CCC4)oc2c1C` reads inactive: -16.5%; that for `COc1ccc(NS(=O)(=O)c2cc3[nH]c(=O)c(=O)[nH]c3cc2C)cc1OC`, inactive: -2.49%.
The result for `CCc1ccc(-n2nc3cc(C)c(NC(=O)c4cc(Cl)ccc4OC)cc3n2)cc1` reads inactive: -2.96%; that for `Cc1ccc(NC(=O)c2ccc(NC(=O)N3CCSc4ncccc43)cc2)cc1Cl`, inactive: -0.663%; that for `O=C(Cn1cc(S(=O)(=O)Cc2ccc(F)cc2)c2ccccc21)NCCc1ccccc1`, inactive: -39.9%.
The result for `Cc1ccc(CNC(=O)Cn2ncc3c(C)n(Cc4ccc(Cl)cc4)c(C)c3c2=O)cc1` reads inactive: -7.87%; that for `COc1ccccc1Nc1cc(C)nc2nc(-c3ccccc3)nn12`, inactive: -13.9%.
Take `CCCN(C(=O)Cn1ncc2c(=O)oc3ccccc3c21)c1cccc(C)c1`: the “activation” value was inactive: -18.1%.
Turning to `Cc1ccc(NC(=O)c2c(N3CCCC3=O)c3cc(C)ccc3n2C)c(C)c1`, the “activation” value is inactive: -19.8%.
The result for `CCC(C)NC(=O)Cn1c(=O)n(Cc2ccc(C(=O)NCCCOC)cc2)c(=O)c2ccccc21` (configuration not stated) reads inactive: 1.49%.
Then `COc1ccc(Nc2cc(C(=O)NCCc3ccccc3)c3ccccc3n2)cc1OC`, with inactive: -11.5%; and `COc1ccc(OCCn2c(C3CC(=O)N(c4ccc(F)cc4)C3)nc3ccccc32)cc1` (configuration not stated), with inactive: 17.4%; and `CSc1ccc(CNCc2c(C(=O)O)c(C)n(Cc3ccc(F)cc3Cl)c2C)cc1`, with inactive: -16.1%.
Regarding `COC(=O)c1c(NC(=O)c2ccc(S(=O)(=O)N3CCCC(C)C3)cc2)sc2c1CCN(C(C)C)C2` (configuration not stated), the “activation” value is inactive: -23.8%.
Then `CC(C)c1ccc(NC(=O)CSc2ncc3c(n2)-c2ccccc2N(C)S3(=O)=O)cc1`, with inactive: -8.48%.
